# Measured values as given in PubChem BioAssay (Tox21).
# Inconclusive means that the source gave no clear call. Such entries were picked first, then a sample of the others. For some of these results: A potency beside an inconclusive call is a rough fit, not a confirmed value. Calls of active or inactive are those of the source. Unless noted, the call rests on the fitted dose curve; in most records, active means well fitted curve in the direction sought with a large enough effect in the repeat runs; inconclusive means weak or mixed curves; inactive means no such curve, though single readings can be large; an effect the other way counts as inactive or inconclusive.
# What was measured:
# [1] = qHTS assay to identify small molecule agonists of H2AX - cell viability counter screen (AID 1224847; calls by dose curve; further: nearly all actives have a fitted effect of over 30% in size; further: potency means the concentration at half of the fitted maximal effect)
# How it was run: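 CHO-K1 wt, 1000 cells/well, o/n 37C; cpds 15 conc, 3 h 37C, 0.76% DMSO; CellTiter-Glo, 30 min RT, luminescence.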
# [2] = qHTS assay to identify small molecule agonists of the estrogen receptor beta (ER-beta) signaling pathway - cell viability counter screen (AID 1259380); further: nearly all actives have a fitted effect of over 30% in size; further: potency means the concentration at half of the fitted maximal effect
# How it was run: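 Viability of ER-beta-UAS-bla HEK293T cells was determined by CellTiter-Glo luminescence following 16 hr treatment with test compounds at 37C.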
# [3] = target: Cytochrome P450 2C19 (Homo sapiens) (UniProt P33261); assay: Cytochrome P450 Family 2 Subfamily C Member 19 (CYP2C19) small molecule antagonists: luciferase reporter qHTS assay (AID 1671197); further: nearly all actives have a fitted effect of over 65% in size; further: potency means the concentration at half of the fitted maximal effect; on activity change, negative = inhibition: on the % scale 0 is the no-effect control and ±100 the full control effect
# How it was run: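 Relative luminescence units recorded 20 min after the detection reagent stopped a 1 h, 37C CYP2C19 reaction on proluciferin substrate, which was started by NADPH regeneration following 10 min room-temperature compound preincubation; ketoconazole positive control.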
# [4] = qHTS assay to identify small molecule antagonists of the estrogen receptor alpha (ER-alpha) signaling pathway - cell viability counter screen (AID 743074; calls by dose curve;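 further: HEK293 cells carrying ER-alpha-UAS-bla reporter stimulated with 17beta-estradiol; nearly all actives have a fitted effect of over 45% in size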; further: potency means the concentration at half of the fitted maximal effect)
# [5] = qHTS assay to identify small molecule antagonists of the vitamin D receptor (VDR) signaling pathway - cell viability counter screen (AID 743225); conditions: VDR-bla HEK293T viability, CellTiter-Glo luminescence, 16 h; viability change, negative = cytotoxic: at 61 µM (top of the series) unless noted; further: nearly all actives have a fitted effect of over 50% in size; further: potency means the concentration at half of the fitted maximal effect; on viability change, negative = cytotoxic: on the % scale 0 is the no-effect control and ±100 the full control effect
# How it was run: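 Viability counter screen run in the same wells as the beta-lactamase reporter assay: HEK 293T VDR-UAS-bla cells, 16 h compound exposure at 37C with 3 nM (final) 1-alpha,25-dihydroxyvitamin D3. CellTiter-Glo luminescence, 30 min, room temperature.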
# [6] = target: Thyrotropin receptor (Homo sapiens) (UniProt P16473); assay: qHTS assay to identify small molecule antagonists of the thyroid stimulating hormone receptor (TSHR) signaling pathway (AID 1259385; calls by dose curve; further: nearly all actives have a fitted effect of over 20% in size; further: potency means the concentration at half of the fitted maximal effect); conditions: TSHR-HEK293 cAMP HTRF, TSH-stimulated antagonist mode; activity change, negative = inhibition: at 92.4 µM (top of the series) unless noted
# How it was run: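 TSHR-HEK293 cells (800/well) plated 18 h, then compounds with Ro20-1724 and TSH at 1.5 ng/mL final, 30 min at room temperature. cAMP quantified by HTRF (cAMP-d2/anti-cAMP-cryptate, 1 h); 15 concentrations in triplicate.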
# [7] = qHTS RealTime-Glo MT Cell Viability Assay in HEK293 cells - 32 hour (AID 1224868); further: potency means the concentration at half of the fitted maximal effect; nearly all actives have a fitted effect of over 50% in size
# How it was run: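 Homogeneous bioluminescent viability format in HEK293 cells (600 cells/well). Following 5 h at 37 C/5% CO2, 23 nL compound was pintooled; the signal was measured repeatedly during 40 h incubation.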
# [8] = qHTS assay to identify small molecule agonists of the constitutive androstane receptor (CAR) signaling pathway - cell viability counter screen (AID 1224836); further: nearly all actives have a fitted effect of over 45% in size; further: potency means the concentration at half of the fitted maximal effect
# How it was run: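 Viability read-out: CellTiter-Fluor fluorescence after 23 h compound exposure at 37 C/5% CO2 in double-stable HepG2-CYP2B6-hCAR cells, with PK11195 present at 0.75 uM final; compounds tested in 15-point titration.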
# [9] = A CellTox Green Cytotoxicity Assay to monitor cytotoxicity in HEK293 cells - 40 hour (AID 1224871); further: nearly all actives have a fitted effect of over 45% in size; further: potency means the concentration at half of the fitted maximal effect
# How it was run: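 Each value comes from one timepoint of a single continuous run in which HEK293 cells with CellTox Green were exposed to compound for up to 40 h at 37 C, dye fluorescence rising with cell death.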
# [10] = target: Peroxisome proliferator-activated receptor gamma (Homo sapiens) (UniProt P37231); assay: qHTS assay to identify small molecule agonists of the peroxisome proliferator-activated receptor gamma (PPARg) signaling pathway (AID 743094; active means well fitted activation curve with a large enough effect in the signal ratio in the repeat runs, not every such curve was filed as active; inconclusive means weak or mixed curves, or effect the other way; inactive means no such curve, though single readings can be large or run the other way; the % refers to the signal ratio; further: potency means the concentration at half of the fitted maximal effect); conditions: HEK293H PPARg-UAS-bla, beta-lactamase FRET ratio, 17 h; activation: at 57 µM (top of the series) unless noted
# How it was run: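 Stably transfected HEK293H cells (GeneBLAzer PPARg UAS-bla) were incubated with test substances for 17 h at 37C after a 5 h pre-incubation; beta-lactamase activity was then detected by FRET substrate fluorescence.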
# [11] = target: Estrogen receptor beta (Homo sapiens) (UniProt Q92731); assay: qHTS assay to identify small molecule agonists of the estrogen receptor beta (ER-beta) signaling pathway (AID 1259377; active means well fitted activation curve with a large enough effect in the signal ratio in the repeat runs, not every such curve was filed as active; inconclusive means weak or mixed curves, or effect the other way; the % refers to the signal ratio; further: on the % scale 0 is the no-effect control and ±100 the full control effect); conditions: ER-beta-UAS-bla HEK293T, beta-lactamase FRET ratio, 16 h; activation: at 92.4 µM (top of the series) unless noted
# How it was run: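 Beta-lactamase reporter readout: fluorescence of LiveBLAzer B/G FRET substrate after 2 h at room temperature, following 16 h compound treatment of ER-beta-UAS-bla HEK293T cells at 37C in 2% charcoal-stripped FBS medium.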
# [12] = target: Estrogen receptor (Homo sapiens) (UniProt P03372); assay: qHTS assay to identify small molecule antagonists of the estrogen receptor alpha (ER-alpha) signaling pathway (AID 743069; active means well fitted curve in the direction sought with a large enough effect in the signal ratio in the repeat runs, not every such curve was filed as active; inconclusive means weak or mixed curves, or effect the other way; inactive means no such curve, though single readings can be large or run the other way; the % refers to the signal ratio; further: on the % scale 0 is the no-effect control and ±100 the full control effect); conditions: HEK293 ER-alpha-UAS-bla, beta-lactamase ratio, antagonist mode; activity, negative = inhibition: at 69.4 µM (top of the series) unless noted
# How it was run: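 HEK293 ER-alpha-UAS-bla GripTite cells, held overnight in 2% charcoal-stripped FBS, 5,000 cells/well, preincubated 4 h, then compound plus 17beta-estradiol for 18 h at 37C. Beta-lactamase read by LiveBLAzer B/G FRET substrate, 2 h at room temperature.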
# [13] = target: Estrogen receptor (Homo sapiens) (UniProt P03372); assay: qHTS assay to identify small molecule agonists of the estrogen receptor alpha (ER-alpha) signaling pathway using the BG1 cell line (AID 743079); conditions: BG1Luc4E2 cells, ERE-luciferase agonist, 22 h; further: on the % scale 0 is the no-effect control and ±100 the full control effect; nearly all actives have a fitted effect of over 20% in size
# [14] = target: Cytochrome P450 3A4 (Homo sapiens) (UniProt P08684); assay: Cytochrome P450 Family 3 Subfamily A Member 4 (CYP3A4) small molecule antagonists: luciferase reporter qHTS assay (AID 1671201); further: nearly all actives have a fitted effect of over 50% in size; further: potency means the concentration at half of the fitted maximal effect
# How it was run: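 Luminescent readout (RLU) proportional to CYP3A4 activity, from luciferin generated off a proluciferin substrate. Enzyme–substrate mix plus compound 10 min at room temp, NADPH regeneration 1 h, detection reagent 20 min.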
# [15] = Caspase-3/7 induction in CHO-K1 cells by small molecules, qHTS cell viability counter screen (AID 1346979); further: nearly all actives have a fitted effect of over 35% in size; further: potency means the concentration at half of the fitted maximal effect
# How it was run: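 CHO-K1 wt, 1,500 cells/well; 5hr pre-incubation 37C/5% CO2; compound pin transfer (DMSO); 16hr exposure; CellTiter-Fluor added, 1hr, fluorescence read.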
# [16] = qHTS assay to identify small molecule agonists of H2AX (AID 1224845; active means well fitted activation curve with a large enough effect in the signal ratio in the repeat runs, not every such curve was filed as active; inconclusive means weak or mixed curves; the % refers to the signal ratio; further: potency means the concentration at half of the fitted maximal effect); conditions: CHO-K1 phospho-H2AX Ser139 HTRF, 3 h; activation (H2AX phosphorylation): at 154 µM (top of the series) unless noted
# How it was run: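 Wild-type CHO-K1 cells, plated overnight, exposed 3hr at 37C to 15 concentrations (0.76% DMSO final). Lysed, then HTRF anti-pH2AX (S139) cryptate and anti-H2AX-d2 antibodies, 24 hr room temperature; 665/620 nm emission read.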
# [17] = target: Vitamin D3 receptor (Homo sapiens) (UniProt P11473); assay: qHTS assay to identify small molecule agonists of the vitamin D receptor (VDR) signaling pathway (AID 743222; calls by dose curve; further: potency means the concentration at half of the fitted maximal effect); conditions: HEK293T VDR-UAS-bla, beta-lactamase FRET ratio, 16 h; activation: at 63.5 µM (top of the series) unless noted
# How it was run: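 Agonist activity measured in VDR-bla reporter cells. Exposure 16 h, 37C, 5% CO2; detection by B/G FRET substrate, 2 h RT.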
# [18] = Caspase-3/7 induction in HepG2 cells by small molecules, qHTS cell viability counter screen (AID 1346981); further: potency means the concentration at half of the fitted maximal effect; nearly all actives have a fitted effect of over 30% in size
# How it was run: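 Counter screen for cytotoxicity: HepG2 exposed 16 hr to compounds, then CellTiter-Fluor viability signal (fluorescence, 1 hr reagent incubation).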
# [19] = target: Nuclear receptor subfamily 1 group I member 2 (Homo sapiens) (UniProt O75469); assay: Human pregnane X receptor (PXR) small molecule agonists, qHTS assay (AID 1346982); further: on the % scale 0 is the no-effect control and ±100 the full control effect; nearly all actives have a fitted effect of over 35% in size
# How it was run: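 Luminescence (ONE-Glo, 30 min RT) after 24 hr compound exposure of PXR-Luc HepG2 cells; cells rested 5 hr post-plating in 5% charcoal-stripped FBS medium.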
# [20] = activation: at 70.3 µM (top of the series) unless noted
# Tags describe the fitted curve by direction and shape or compound fluorescence and quenching.
# Sequence of UniProt P16473 (P16473 whole entry, looked up): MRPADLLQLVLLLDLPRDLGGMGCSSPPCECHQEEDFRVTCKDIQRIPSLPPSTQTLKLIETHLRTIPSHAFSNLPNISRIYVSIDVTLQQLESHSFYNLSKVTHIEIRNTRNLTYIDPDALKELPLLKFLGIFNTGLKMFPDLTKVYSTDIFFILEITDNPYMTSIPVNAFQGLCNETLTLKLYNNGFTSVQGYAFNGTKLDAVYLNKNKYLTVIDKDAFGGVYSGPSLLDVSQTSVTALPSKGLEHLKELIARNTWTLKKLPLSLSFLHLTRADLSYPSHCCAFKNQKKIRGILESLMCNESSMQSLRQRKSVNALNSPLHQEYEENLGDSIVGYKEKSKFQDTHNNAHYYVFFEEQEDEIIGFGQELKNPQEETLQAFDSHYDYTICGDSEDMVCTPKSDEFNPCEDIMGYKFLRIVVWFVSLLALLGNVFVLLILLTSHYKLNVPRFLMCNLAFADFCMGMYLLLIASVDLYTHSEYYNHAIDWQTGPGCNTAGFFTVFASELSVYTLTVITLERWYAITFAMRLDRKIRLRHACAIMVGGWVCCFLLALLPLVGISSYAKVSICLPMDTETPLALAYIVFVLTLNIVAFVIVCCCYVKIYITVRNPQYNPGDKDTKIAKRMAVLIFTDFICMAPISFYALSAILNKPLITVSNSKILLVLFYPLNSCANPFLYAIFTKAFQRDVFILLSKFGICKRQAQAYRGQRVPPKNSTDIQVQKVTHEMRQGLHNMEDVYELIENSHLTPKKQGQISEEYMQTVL
# Sequence of UniProt P37231 (P37231 whole entry, looked up): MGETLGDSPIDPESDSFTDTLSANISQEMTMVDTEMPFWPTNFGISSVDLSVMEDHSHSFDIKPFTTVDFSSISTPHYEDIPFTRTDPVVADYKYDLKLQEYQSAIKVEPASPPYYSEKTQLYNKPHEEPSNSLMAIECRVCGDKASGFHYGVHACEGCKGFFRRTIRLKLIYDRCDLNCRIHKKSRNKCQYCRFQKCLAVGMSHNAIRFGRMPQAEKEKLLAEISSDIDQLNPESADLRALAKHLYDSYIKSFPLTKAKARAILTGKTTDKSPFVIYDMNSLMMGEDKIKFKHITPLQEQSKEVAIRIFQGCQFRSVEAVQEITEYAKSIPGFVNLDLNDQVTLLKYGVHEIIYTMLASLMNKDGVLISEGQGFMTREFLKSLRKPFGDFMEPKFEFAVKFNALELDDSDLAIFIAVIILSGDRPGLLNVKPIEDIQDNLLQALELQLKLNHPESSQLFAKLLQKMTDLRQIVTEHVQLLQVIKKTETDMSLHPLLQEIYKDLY
# Sequence of UniProt P03372 (P03372 whole entry, looked up): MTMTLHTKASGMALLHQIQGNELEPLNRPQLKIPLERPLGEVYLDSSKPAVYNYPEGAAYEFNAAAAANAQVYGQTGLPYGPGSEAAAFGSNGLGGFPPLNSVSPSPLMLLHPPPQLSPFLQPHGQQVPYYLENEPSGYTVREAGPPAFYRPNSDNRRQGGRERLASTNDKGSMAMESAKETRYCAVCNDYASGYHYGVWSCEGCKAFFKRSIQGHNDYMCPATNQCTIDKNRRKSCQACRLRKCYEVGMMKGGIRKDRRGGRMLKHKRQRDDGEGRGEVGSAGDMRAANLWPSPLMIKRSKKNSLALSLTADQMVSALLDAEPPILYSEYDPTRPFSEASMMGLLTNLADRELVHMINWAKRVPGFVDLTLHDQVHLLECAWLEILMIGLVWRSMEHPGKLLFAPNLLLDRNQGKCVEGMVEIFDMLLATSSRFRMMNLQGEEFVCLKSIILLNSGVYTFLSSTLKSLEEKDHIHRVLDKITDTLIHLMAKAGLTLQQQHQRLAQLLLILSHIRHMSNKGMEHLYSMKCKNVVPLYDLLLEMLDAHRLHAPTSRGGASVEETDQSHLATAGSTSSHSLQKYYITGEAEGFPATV
# Sequence of UniProt P33261 (P33261 whole entry, looked up): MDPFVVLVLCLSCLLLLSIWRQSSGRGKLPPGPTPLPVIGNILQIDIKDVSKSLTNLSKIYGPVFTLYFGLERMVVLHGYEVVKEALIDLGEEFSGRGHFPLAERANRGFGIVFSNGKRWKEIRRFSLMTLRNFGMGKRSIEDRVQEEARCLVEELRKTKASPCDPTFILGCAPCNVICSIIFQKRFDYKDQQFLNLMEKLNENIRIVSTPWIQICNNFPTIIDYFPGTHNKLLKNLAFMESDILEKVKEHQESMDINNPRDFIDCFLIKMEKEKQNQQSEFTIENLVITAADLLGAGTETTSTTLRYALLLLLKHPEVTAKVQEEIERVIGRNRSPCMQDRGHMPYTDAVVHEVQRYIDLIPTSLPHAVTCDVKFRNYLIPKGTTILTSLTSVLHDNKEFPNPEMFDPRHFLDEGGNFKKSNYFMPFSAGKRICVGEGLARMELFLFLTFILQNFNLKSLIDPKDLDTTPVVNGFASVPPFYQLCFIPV
# Sequence of UniProt Q92731 (Q92731 whole entry, looked up): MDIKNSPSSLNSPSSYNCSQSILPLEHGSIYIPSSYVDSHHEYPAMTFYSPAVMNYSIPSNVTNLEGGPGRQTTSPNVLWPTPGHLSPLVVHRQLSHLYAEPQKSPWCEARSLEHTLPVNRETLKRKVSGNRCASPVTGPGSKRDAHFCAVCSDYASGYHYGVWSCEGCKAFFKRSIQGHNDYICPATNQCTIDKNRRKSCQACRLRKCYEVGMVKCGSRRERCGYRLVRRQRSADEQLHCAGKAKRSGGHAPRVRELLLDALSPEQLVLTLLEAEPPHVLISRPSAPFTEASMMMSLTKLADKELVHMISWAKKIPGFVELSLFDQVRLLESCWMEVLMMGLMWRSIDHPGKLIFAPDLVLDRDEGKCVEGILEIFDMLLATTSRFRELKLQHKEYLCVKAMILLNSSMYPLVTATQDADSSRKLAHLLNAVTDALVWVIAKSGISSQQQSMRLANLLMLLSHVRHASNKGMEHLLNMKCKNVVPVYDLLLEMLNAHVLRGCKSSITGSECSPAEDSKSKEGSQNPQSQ
# Sequence of UniProt P11473 (P11473 whole entry, looked up): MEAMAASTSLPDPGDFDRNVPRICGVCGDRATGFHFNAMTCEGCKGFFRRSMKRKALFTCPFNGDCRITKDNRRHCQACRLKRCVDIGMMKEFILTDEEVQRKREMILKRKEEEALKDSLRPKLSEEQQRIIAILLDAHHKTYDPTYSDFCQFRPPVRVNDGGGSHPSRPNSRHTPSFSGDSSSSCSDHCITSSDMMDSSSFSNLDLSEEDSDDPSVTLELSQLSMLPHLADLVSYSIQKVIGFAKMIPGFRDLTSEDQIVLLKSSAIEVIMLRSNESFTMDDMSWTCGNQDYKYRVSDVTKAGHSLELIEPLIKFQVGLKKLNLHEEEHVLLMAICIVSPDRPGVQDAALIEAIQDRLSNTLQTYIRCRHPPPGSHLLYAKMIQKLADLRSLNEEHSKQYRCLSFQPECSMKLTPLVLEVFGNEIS
# Sequence of UniProt P08684 (P08684 whole entry, looked up): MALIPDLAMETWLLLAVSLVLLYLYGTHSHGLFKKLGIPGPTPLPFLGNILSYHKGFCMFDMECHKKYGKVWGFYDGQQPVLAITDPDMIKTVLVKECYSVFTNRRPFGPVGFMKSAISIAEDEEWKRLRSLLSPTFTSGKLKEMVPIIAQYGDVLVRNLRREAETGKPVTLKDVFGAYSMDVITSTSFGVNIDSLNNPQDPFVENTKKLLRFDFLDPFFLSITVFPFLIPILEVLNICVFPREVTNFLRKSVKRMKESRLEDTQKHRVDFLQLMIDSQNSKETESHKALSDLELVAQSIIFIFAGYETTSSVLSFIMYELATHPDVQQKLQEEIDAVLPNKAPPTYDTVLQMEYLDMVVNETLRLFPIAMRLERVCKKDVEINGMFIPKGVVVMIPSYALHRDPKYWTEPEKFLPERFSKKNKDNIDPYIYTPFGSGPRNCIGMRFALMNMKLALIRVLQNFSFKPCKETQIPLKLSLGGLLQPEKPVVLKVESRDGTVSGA
# Sequence of UniProt O75469 (O75469 whole entry, looked up): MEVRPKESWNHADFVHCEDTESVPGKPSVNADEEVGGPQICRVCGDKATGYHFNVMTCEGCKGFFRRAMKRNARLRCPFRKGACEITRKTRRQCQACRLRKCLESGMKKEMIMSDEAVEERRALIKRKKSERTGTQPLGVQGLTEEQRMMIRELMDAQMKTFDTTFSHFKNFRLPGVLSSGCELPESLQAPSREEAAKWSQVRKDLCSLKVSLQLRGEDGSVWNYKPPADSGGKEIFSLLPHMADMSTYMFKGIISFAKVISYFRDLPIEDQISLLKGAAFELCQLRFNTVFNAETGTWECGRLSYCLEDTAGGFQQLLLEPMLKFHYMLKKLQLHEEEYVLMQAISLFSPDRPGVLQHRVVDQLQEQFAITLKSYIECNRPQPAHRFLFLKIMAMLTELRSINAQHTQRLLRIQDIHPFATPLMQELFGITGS
compound,measurement,setting,value
CNCCO,Potency,[1],"inconclusive: 50.5 µM [rising, partial curve, poor fit]"
same,Potency,[2],"inconclusive: 54.5 µM [rising, single point]"
same,Potency,[3],inactive
CC(=O)SC[C@@H](C)C(=O)N1CCC[C@H]1C(=O)N[C@@H](Cc1ccccc1)C(=O)O,Potency,[4],inactive
same,Potency,[5],inactive
same,Potency,[6],"inconclusive: 18.8 µM [rising, partial curve, poor fit]"
C[C@H](CCC(=O)NCC(=O)O)[C@H]1CC[C@H]2[C@@H]3[C@H](O)C[C@@H]4C[C@H](O)CC[C@]4(C)[C@H]3C[C@H](O)[C@]12C,Potency,[7],active: 9.49 µM
CCN(CC)CCNC(=O)COc1ccc(Cl)cc1,Potency,[8],inactive
same,Potency,[9],inactive
same,Potency,[2],inactive
O=C(O)C(S)C(S)C(=O)O (stereo not drawn),activation,[10],inconclusive: -15.6%
same,Potency,[1],inactive
same,Potency,[11],inactive
same,Potency,[6],inactive
CO[Si](CCCNCCC[Si](OC)(OC)OC)(OC)OC,Potency,[12],inactive
same,Potency,[13]; [20],inactive
same,Potency,[5],inactive
same,Potency,[9],inactive
same,Potency,[6],inactive
Oc1ccccc1Cc1ccccc1O,"activity, negative = inhibition",[12],inconclusive: 4.85%
same,Potency,[4],"inconclusive: 4.36 µM [cytotoxic, partial curve]"
same,Potency,[8],inactive
same,Potency,[7],"inconclusive: 15.5 µM [cytotoxic, partial curve]"
same,activation,[11],inconclusive: 0.509%
same,Potency,[14],"inconclusive: 71 µM [inhibitor, partial curve, poor fit]"
CC(C)(C)c1ccc(C=O)cc1,Potency,[12],inactive
same,Potency,[9],"inconclusive: 38.5 µM [activator, partial curve, poor fit]"
CCCCC(CC)COC(=O)COc1ccc(Cl)cc1Cl (stereo not drawn),Potency,[2],"inconclusive: 62.1 µM [cytotoxic, single point]"
same,Potency,[6],"inconclusive: 49.3 µM [falling, partial curve]"
same,Potency,[15],inactive
Cc1c(C(C)C)c(=O)n(-c2ccccc2)n1C,Potency,[5],"inconclusive: 6.01 µM [cytotoxic, single point]"
same,Potency,[8],inactive
same,Potency,[16],"inconclusive: 61.9 µM [rising, single point]"
O=[N+]([O-])c1cccc(Cl)c1Cl,Potency,[1],inactive
same,Potency,[9],"inconclusive: 55 µM [activator, partial curve, poor fit]"
FC(F)(F)/C(=N\OCC1OCCO1)c1ccc(Cl)cc1,Potency,[9],inactive
Cc1ccc(S(=O)(=O)NC(=O)NC2CCCCCCC2)cc1,Potency,[10],inconclusive: 26.8 µM [activator]
same,Potency,[8],inactive
same,Potency,[9],inactive
same,Potency,[15],"inconclusive: 37.6 µM [rising, single point]"
same,Potency,[3],"inconclusive: 43.6 µM [inhibitor, single point]"
Cc1nnc(NS(=O)(=O)c2ccc(N)cc2)s1,activation,[13]; [20],inconclusive: -4.54% [phenotype inactive]
same,activation,[13]; at 70.3 µM (top of the series),inactive: 4.42%
same,Potency,[5],"inconclusive: 38.8 µM [cytotoxic, single point]"
same,Potency,[8],"inconclusive: 13.3 µM [rising, single point]"
same,Potency,[3],"inconclusive: 17.4 µM [inhibitor, single point]"
CN1CCN(c2c(F)cc3c(=O)c(C(=O)O)cn4c3c2SCC4)CC1,Potency,[16],"inconclusive: 27.7 µM [rising, partial curve]"
CC(C)=CCOC(=O)c1ccccc1,Potency,[17],"inconclusive: 61.6 µM [activator, single point]"
same,Potency,[5],"inconclusive: 0.0436 µM [cytotoxic, full curve, poor fit]"
same,Potency,[9],"inconclusive: 61.6 µM [activator, partial curve, poor fit]"
same,Potency,[18],"inconclusive: 24.3 µM [rising, partial curve, poor fit]"
same,Potency,[19],inactive
same,Potency,[14],inactive
Cc1ccc2c(c1)c1c3n2CCNC3CCC1 (stereo not drawn),Potency,[4],inactive
same,activation,[17],inconclusive: -6.8%
same,Potency,[8],"inconclusive: 2.66 µM [cytotoxic, full curve]"
same,Potency,[16],inactive
same,Potency,[2],"inconclusive: 29.8 µM [cytotoxic, single point]"
same,Potency,[15],inactive
same,Potency,[18],"inconclusive: 11.9 µM [cytotoxic, partial curve, poor fit]"
[O]=[Mo](=[O])=[O],"viability change, negative = cytotoxic",[8],inactive: -3.23% [at 19 µM]
same,Potency,[7],"inconclusive: 13.2 µM [cytotoxic, single point]"
CC(NC(CCc1ccccc1)C(=O)O)C(=O)N1C(=O)N(C)CC1C(=O)O (stereo not drawn),Potency,[5],inactive
same,Potency,[8],inactive
same,Potency,[11],inactive
CCCCCCCCCCCC,Potency,[4],"inconclusive: 2.19 µM [rising, full curve]"
same,Potency,[8],inactive
same,Potency,[16],inactive
C[C@@H]1CN(c2c(F)c(F)c3c(=O)c(C(=O)O)cn(C4CC4)c3c2F)C[C@H](C)N1,Potency,[12],inactive
same,Potency,[13]; [20],inactive
same,Potency,[10],inactive
same,"activity change, negative = cytotoxicity",[1],inactive: 5.9% [at 31.6 µM]
same,"activity change, negative = cytotoxicity",[2],inactive: -0.431% [at 19 µM]
